{"source": "PubChem BioAssay AID463173", "about": "(ICCB-Longwood Screening Facility, Harvard Medical School, 2010)", "note": "Hit rate of the full screen: of about 52,000 compounds, about 1,700 (3.3%) were called active. Cut-off read from the data, not from the text of the source: active = survival mostly below about 52% (no sharp cut-off); inactive = mostly above about 56%. The list shows a part of the results."}
{"tested_on": "Wild type", "experiment": "S. aureus survival, RN4220 and DeltatarO strains – OD600, teichoic acid synthesis inhibitors, primary screen (AID 463173)", "details": "S. aureus RN4220 wild type/DeltatarO growth, OD600, 18 h, stronger effect = lower value, screened at 18.75 µg/mL (by protocol)"}
{"smiles": "CN(C)S(=O)(=O)N1CCN(Cc2ccccc2)CC1", "survival": "inactive: 102%"}
{"smiles": "CC(=O)N1CCc2c(sc3c2c(=O)n(CCc2ccccc2)c(=O)n3Cc2ccc(F)cc2)C1", "survival": "inactive: 89%"}
{"smiles": "COc1ccc(-n2ccn(CC(=O)Nc3ccccc3C(F)(F)F)c(=O)c2=O)cc1OC", "survival": "inactive: 87%"}
{"smiles": "CCc1ccc(-n2c(CCC(=O)O)ccc2-c2cccs2)cc1", "survival": "inactive: 64%"}
{"smiles": "Cc1ccccc1NC(=O)Cn1c(=O)n(CCCCCC(=O)NCc2ccc3c(c2)OCO3)c(=O)c2sccc21", "survival": "inactive: 101%"}
{"smiles": "Cc1c(Cl)cccc1NC(=O)CSc1nc(=O)n(CCN2CCOCC2)c2c1CCC2", "survival": "inactive: 71%"}
{"smiles": "CCOc1ccc(NC(=O)c2sc3nc(-c4ccc(OC)cc4)cn3c2C)cc1", "survival": "inactive: 94%"}
{"smiles": "CC(C)(C)NC(=O)c1cccc(C(=O)NC(C)(C)C)c1", "survival": "inactive: 107%"}
{"smiles": "COc1ccc(-c2nsc(NC(=O)c3ccccc3Br)n2)cc1", "survival": "inactive: 47%"}
{"smiles": "N#CC(C#N)=Cc1cn(CC(=O)Nc2ccccc2)c2ccccc12", "survival": "inactive: 120%"}
{"smiles": "Cc1ccccc1C1C(C#N)=C(N)NC(S)=C1C#N", "note": "(stereo not given)", "survival": "inactive: 93%"}
{"smiles": "COc1cc(NC(=O)C2CCCN(S(=O)(=O)c3cn(C)cn3)C2)cc(OC)c1", "note": "(stereo not given)", "survival": "inactive: 69%"}
{"smiles": "CCOC(=O)c1cc2c(=O)n3ccccc3nc2n(CC(C)C)c1=NC(=O)C(C)Oc1ccccc1", "note": "(stereo not given)", "survival": "inactive: 141%"}
{"smiles": "CC(=O)Nc1ccc(NCc2nnc3n2CCCCC3)cc1", "survival": "inactive: 53%"}
{"smiles": "CCN1CCCC1CNCC(=O)NC1(C)C2CCC(C2)C1(C)C", "note": "(stereo not given)", "survival": "inactive: 113%"}
{"smiles": "Cc1ccc(Nc2ccc(N3CCN(C(=O)c4ccc([N+](=O)[O-])cc4Cl)CC3)nn2)cc1", "survival": "inactive: 129%"}
{"smiles": "CCc1ccccc1NC(=O)CCc1c(C)nc2cc(-c3ccccc3)nn2c1C", "survival": "inactive: 71%"}
{"smiles": "CCOc1ccc(NC(=O)CCS(=O)(=O)c2cc3c4c(c2)CCN4C(=O)CC3)cc1", "survival": "inactive: 71%"}
{"smiles": "Cc1nnc(N2CCN(C(=O)Nc3cc(F)ccc3F)CC2)c2nn(-c3ccc(Cl)cc3)c(C)c12", "survival": "inactive: 75%"}
{"smiles": "CCOc1ccc2[nH]c(=O)c(CN(Cc3ccccc3OC)C(=O)N3CCCC3)cc2c1", "survival": "inactive: 103%"}
{"smiles": "O=C(Nc1ccccc1)N1CCCC(c2nc(-c3cccs3)no2)C1", "note": "(stereo not given)", "survival": "inactive: 106%"}
{"smiles": "O=C(NC1CC(=O)N(c2ccc(Cl)cc2)C1)C(=O)c1c[nH]c2ccccc12", "note": "(stereo not given)", "survival": "inactive: 73%"}
{"smiles": "CCC(C)(C)n1nnnc1CN(Cc1ccc(Cl)cc1)CC1CCCO1", "note": "(stereo not given)", "survival": "inactive: 136%"}
{"smiles": "CCN(CC)CCC(=O)N1c2ccccc2CCc2ccc(NC(=O)OC(C)C)cc21", "survival": "inactive: 105%"}
{"smiles": "Cc1cccc(NC(=O)NCCn2c(=O)oc3ccc(C)cc32)c1", "survival": "inactive: 88%"}
{"smiles": "COc1cccc(NC(=O)c2sc3nc(N4CCOCC4)c4c(c3c2N)CC(C)(C)OC4)c1", "survival": "inactive: 77%"}
{"smiles": "Cc1ccc(CNC(=O)CCCn2c(=O)c3ccccc3n(CC(=O)C(C)(C)C)c2=O)cc1", "survival": "inactive: 68%"}
{"smiles": "CCOC(=O)Cn1c(=O)n(CC2CCCO2)c2nc(-c3ccc(OC)cc3OC)nc(C(N)=O)c21", "note": "(stereo not given)", "survival": "inactive: 64%"}
{"smiles": "COc1cc(NC(=O)C(CC(C)C)NS(=O)(=O)c2ccc3c(c2)CCCC(=O)N3)cc(OC)c1", "note": "(stereo not given)", "survival": "inactive: 60%"}
{"smiles": "Cc1oc2c(c1C(=O)NCc1cccc(Br)c1)C1=NCCN1C=N2", "survival": "inactive: 89%"}
{"smiles": "COc1ccccc1N1CCN(C(=O)C2CCN(S(=O)(=O)c3cnc[nH]3)CC2)CC1", "survival": "inactive: 86%"}
{"smiles": "COc1ccc(CNC(=O)c2cc3c(-c4ccccc4F)nn(C)c3s2)c(OC)c1", "survival": "inactive: 126%"}
{"smiles": "CCOc1ccc(NC(=O)Cn2c(=O)n(-c3ccc(C)cc3)c(=O)c3cc(OC)c(OC)cc32)cc1", "survival": "inactive: 73%"}
{"smiles": "COC(=O)C1=C(CN(C)CCc2ccc(OC)c(OC)c2)NC(=O)NC1c1cccc(OC)c1", "note": "(stereo not given)", "survival": "inactive: 91%"}
{"smiles": "COc1ccc(CNC(=O)CN(c2ccc(C)cc2)S(=O)(=O)c2c(C)n[nH]c2C)cc1", "survival": "inactive: 76%"}
{"smiles": "O=C(Nc1ccc(Br)cc1)c1ccc2c3c(onc13)-c1ccccc1C2=O", "survival": "inactive: 122%"}
{"smiles": "COc1ccc2oc(=O)c(-c3csc(/C(C#N)=C/c4ccc(F)cc4)n3)cc2c1", "survival": "inactive: 96%"}
{"smiles": "COc1cccc(CNC(=O)CN2C(=O)N(c3cc(C)ccc3C)S(=O)(=O)c3ccccc32)c1OC", "survival": "inactive: 69%"}
{"smiles": "COc1cc(C)c(Cl)cc1S(=O)(=O)NCCc1c(C)[nH]c2ccccc12", "survival": "inactive: 73%"}
{"smiles": "Cc1ccc(C)c(CN2C(=O)c3ccccc3S(=O)c3ccc(C(=O)NCc4ccccc4Cl)cc32)c1", "note": "(stereo not given)", "survival": "inactive: 152%"}
{"smiles": "Cc1ccc(C)c(N2CCN(C(=O)c3cnc4c(-c5ccccc5)c(C)nn4c3C)CC2)c1", "survival": "inactive: 72%"}
{"smiles": "Cc1ccc(/C=C(\\C#N)C(=O)Nc2cc(C)ccc2C)cc1", "survival": "inactive: 84%"}
{"smiles": "CCOC(=O)c1c(NC(C)=O)c2c3c(sc2n1Cc1nc(-c2ccccc2OCC)oc1C)CCCC3", "survival": "inactive: 91%"}
{"smiles": "CCCCCn1nc(C)c(/C=N\\NC(=O)c2cccs2)c1C", "survival": "inactive: 129%"}
{"smiles": "COc1cccc(NC(=O)Cn2cc(C(=O)C3CCCCC3)c3ccccc32)c1", "survival": "inactive: 73%"}
{"smiles": "CCN(CC)c1ccc(C(=O)NCc2ccc3c(c2)CCN3C(=O)c2ccccc2)cc1", "survival": "inactive: 70%"}
{"smiles": "CCN1CCC(N(Cc2cccc(OC)c2)C(=O)Nc2cccc(C(F)(F)F)c2)CC1", "survival": "inactive: 66%"}
{"smiles": "CCOC(=O)c1c(NC(=O)c2cc(CC)on2)sc(C)c1C", "survival": "inactive: 130%"}
{"smiles": "O=C(Nc1ccc(-c2cc(C(F)(F)F)nn2-c2ccccc2)cc1)c1cccc(F)c1", "survival": "inactive: 37%"}
{"smiles": "Cc1ccc2c(c1)N(C(=O)CCC(=O)Nc1ccccc1Cl)CC(C)O2", "note": "(stereo not given)", "survival": "inactive: 117%"}
{"smiles": "O=c1cc(CSc2ncn[nH]2)[nH]c2c(Cl)cccc12", "survival": "inactive: 68%"}
{"smiles": "Brc1ccccc1-n1ncc2c1ncn1nc(Cc3ccccc3)nc21", "survival": "inactive: 77%"}
{"smiles": "O=C(CSc1nnc(NC(=O)NC2CCCCC2)s1)Nc1ccccc1F", "survival": "inactive: 71%"}
{"smiles": "CCOC(=O)c1c(C)[nH]c(C)c1S(=O)(=O)NCC(=O)Nc1cccc(C(F)(F)F)c1", "survival": "inactive: 75%"}
{"smiles": "O=C(CC1N=C2c3ccccc3N=C(SCc3ccc(Cl)cc3)N2C1=O)NCCc1ccccc1", "note": "(stereo not given)", "survival": "inactive: 102%"}
